Data reported in US20240374746A1, “SIRP-ALPHA ANTIBODIES AND CONJUGATES” (Tallac Therapeutics, Inc., priority 2021, published 2024).

How the values were obtained:
[1] = system: CD14+ monocytes; experiment: Monocyte activation (CD40) in PBMCs co-cultured with DLD-1 tumor cell lines; assay type: cell-based, human; settings: co-culture with DLD-1 overexpressing SIRP-α and with parental DLD-1; 300 nM to 0.41 nM, 48 hours; compared to other conjugates and unconjugated antibodies
Excerpt: Experiments using anti-SIRP-α antibody-CpG oligonucleotide conjugate used the 7-7 CpG oligo (SEQ ID NO:35) conjugated to anti-SIRP-α antibody comprising: (a) the heavy chain sequence of SEQ ID NO:68 and the light chain sequence of SEQ ID NO:75 (for anti-hIgG1), (b) the heavy chain sequence of SEQ ID NO:66 and the light chain sequence of SEQ ID NO: 75 (for anti-hIgG4), or (c) the heavy chain sequence of SEQ ID NO:67 and the light chain sequence of SEQ ID NO:75 (for anti-hIgG1 AAA). Trima residuals were received from Vitalant and diluted 1:2 with Phosphate Buffered Saline (PBS, Gibco). Diluted blood was split into two tubes and underplayed with 15 mL Ficoll-Paque (GE Healthcare). Tubes were centrifuged for 30 minutes at 400×g. PBMCs were collected from the interface, resuspended and washed in FACS buffer (PBS with 0.5% Bovine Serum Albumin (Gibco)). After one wash, PBMCs were resuspended in Complete RPMI (RPMI+10% FBS). PBMCs were immediately plated onto a 96-well format (0.5e6/well) in Complete RPMI. Tumor cells (0.025E6/well) from DLD-1 parental CFSE labeled, or DLD-1 transduced to overexpress SIRP-α+ and GFP were added to PBMC at 20:1 (effector to target). […] Cells were analyzed on Attune NxT Flow Cytometer (Thermo Fisher), with subsequent data analysis by Flowjo 10.7 (Treestar). […] CD14^+ monocyte activation levels of activation marker were assessed by median fluorescent intensity.

[2] = system: dendritic cells; experiment: Dendritic cell activation (CD40) in human PBMCs; assay type: cell-based; settings: 24 hours
Experimental: Trima residuals were received from Vitalant and diluted 1:3 with Phosphate Buffered Saline (PBS, Gibco). Diluted blood was underplayed with 15 mL Ficoll-Paque (GE Healthcare). Tubes were centrifuged for 30 minutes at 400×g with break off. PBMCs were collected from the interface, resuspended and washed in FACS buffer (PBS with 0.5% Bovine Serum Albumin (Gibco)). After one wash, PBMCs were resuspended in Complete RPMI (RPMI, 10% FBS, 1× Pen/Strep, 1× Glutamax). PBMCs were immediately plated onto a 96-well format (1e6/well) in Complete RPMI. Three-fold serial dilutions were added to the cells from 300 nM to 0.4 nM for anti-SIRP-α antibody (heavy chain comprising the sequence of SEQ ID NO:66 and light chain comprising the sequence of SEQ ID NO:75) and anti-SIRP-α conjugate (heavy chain comprising the sequence of SEQ ID NO:66 and a light chain comprising the sequence of SEQ ID NO:75, conjugated to CpG oligo 7-7 (SEQ ID NO:35)). Free CpG 7-7 (SEQ ID NO:35) was titrated from 3 μM to 4.12 nM. Cells were incubated at 37° C. under 5% CO2 for 24 hours. […] Cells were analyzed on Attune NxT Flow Cytometer (Thermo Fisher), with subsequent data analysis by Flowjo 10.7 (Treestar). […] Levels of activation marker were assessed by median fluorescent intensity.

[3] = system: THP-1-Dual hTLR9 cell line, interferon regulatory factor (IRF) pathway; experiment: THP-1-Dual hTLR9 reporter assay, IRF pathway (secreted Lucia luciferase); assay type: cell-based, human; settings: 200 nM-1.56 nM, 24 hours
Experimental: THP-1-Dual hTLR9 cell line (thpd-nfis, Invivogen) was derived from human THP-1 monocytes engineered to overexpress the human TLR9 (hTLR9) gene and featuring two reporter genes allowing for simultaneous assessment of the NF-kB pathway by monitoring the activity of an inducible secreted embryonic alkaline phosphatase (SEAP), and the interferon regulatory factor (IRF) pathway by monitoring the activity of an inducible secreted Lucia luciferase. Briefly, 250,000 cells in 100 uL of growth media (RPMI 1640 (Gibco), 2 mM L-glutamine (Gibco), 25 mM HEPES (Gibco), 10% FBS (Gibco), 100 U/mL penicillin (Gibco), 100 ug/mL streptomycin (Gibco), 100 ug/mL Normacin (Invivogen) were plated in 96-well flat-bottom plates (Nunc). An 8 step 2-fold serial dilution of anti-SIRP-α antibody or anti-SIRP-α antibody conjugate was added to cells in 50 μL for a final concentration range of 200 nM-1.56 nM. 10 μg/mL of a F(ab′)2 fragment goat anti-human, IgG Fcγ fragment specific (Jackson Immuno Research) was added in 50 μL of growth media as a cross-linking agent. Cells were incubated at 37 C for 24 hours. NF-kB and IRF induction from supernatant was detected according to manufacturer's protocol. EC50 values were derived using three-parameter […] regression curve fir in Prism 9 (GraphPad), and data were presented as fold-over media control. […]

Row | Molecule | induction of CD40 in monocytes [1] | surface marker expression (CD40) on dendritic cells [2] | IRF induction [3]
1 | hIgG4 conjugate: anti-SIRP-α antibody, heavy chain SEQ ID NO:66 and light chain SEQ ID NO:75, conjugated to 7-7 CpG oligo (SEQ ID NO:35); Examples 13, 15 (conjugate, antibody conjugated to CpG oligonucleotide; modified_base 1 OTHER; 5-Bromo-2'-deoxyuridine; modified_base 13..14 OTHER; 2'-O-Methyl-Thymidine; modified_base 1..4 OTHER; phosphorothioate linkages; misc_feature 4^5 phosphotriester linker-PEG24-NH2; modified_base 5..9 OTHER; modified_base 9^10 OTHER; phosphorodithioate linkage; modified_base 10..14 OTHER; misc_feature 14 3' spacer C3) heavy: EVQLVESGGGVVQPGGSLRLSCAASGFTFSSNAMSWVRQAPGKGLEWVAGISAGGSDTYYPASVKGRFTISRDNSKNTLYLQMNSLRAEDTAVYYCARETWNHLFDYWGQGTLVTVSSASTKGPSVFPLAPCSRSTSESTAALGCLVKDYFPEPVTVSWNSGALTSGVHTFPAVLQSSGLYSLSSVVTVPSSSLGTKTYTCNVDHKPSNTKVDKRV[here human IgG4 Fc with S228P (EU numbers) without letters]RPQGFGPP light: SYELTQPPSVSVSPGQTARITCSGGSYSSYYYAWYQQKPGQAPVTLIYSDDKRPSNIPERFSGSSSGTTVTLTISGVQAEDEADYYCGGYDQSSYTNPFGGGTQLTVLGQPKANPTVTLFPPSSEELQANKATLVCLISDFYPGAVTVAWKADGSPVKAGVETTKPSKQSSDKYAASSYLSLTPEQWKSHRSYSCQVTHEGSTVEKTVAPTECS DNA: TCGTCGTGTCGTTT | strongest induction of CD40 | significantly increased activation | 
2 | Unconjugated anti-SIRP-α antibody: anti-SIRP-α antibody with heavy chain SEQ ID NO:66 and light chain SEQ ID NO:73 (antibody) heavy: EVQLVESGGGVVQPGGSLRLSCAASGFTFSSNAMSWVRQAPGKGLEWVAGISAGGSDTYYPASVKGRFTISRDNSKNTLYLQMNSLRAEDTAVYYCARETWNHLFDYWGQGTLVTVSSASTKGPSVFPLAPCSRSTSESTAALGCLVKDYFPEPVTVSWNSGALTSGVHTFPAVLQSSGLYSLSSVVTVPSSSLGTKTYTCNVDHKPSNTKVDKRV[here human IgG4 Fc with S228P (EU numbers) without letters]RPQGFGPP light: SYELTQPPSVSVSPGQTARITCSGGSYSSYYYAWYQQKPGQAPVTLIYSDDKRPSNIPERFSGSSSGTTVTLTISGVQAEDEADYYCGGYDQSSYTNPFGGGTKLTVLGQPKANPTVTLFPPSSEELQANKATLVCLISDFYPGAVTVAWKADGSPVKAGVETTKPSKQSNNKYAASSYLSLTPEQWKSHRSYSCQVTHEGSTVEKTVAPTECS |  |  | did not elicit a response
